# Measurements published in patent US12673111B2, “Bifunctional degraders of galactose-deficient immunoglobulins” (priority 2023, dated 2026).
# Assays:
# [1] = test system: total IgA conjugated to Alexa Fluor 594; experiment: ASGPR-dependent uptake assay (total IgA endocytosis) in HEK293 (+ASGPR) cells; assay type: cell-based, human
# Procedure: (§1) A HEK293 bioluminescent cell-based assay was used to assess ASGPR-dependent uptake by cells in vitro.
# (§2) Harvest HEK293 (+ASGPR) cells—phosphate-buffered saline rinse 2×.
# (§3) Set cells in 40 k/100 μl/well in DMEM+200 μg/mL G418+10% Fetal Bovine Serum grow plus 1% P/S overnight.
# (§4) Dilute ⅓ 100 optimum+50 μl sample for six concentrations.
# (§5) Add 90 μl dg-IgA/IgA mAb or 0 Ab for controls.
# (§6) Add 10 μl of step-diluted compounds to the first nine columns and 10 μl optimum to the remaining columns.
# (§7) Incubate overnight—Incucyte read @ four hours, twelve hours, and twenty hours in red channel.
# (§8) In vitro cellular internalization of dg-IgA with AGN03A.
# (§9) HEK293 cells transfected with ASGPR1 were used to measure endocytosis of 1 μg/mL dg-IgA and total IgA conjugated to Alexa Fluor 594. MFI=mean fluorescence intensity, S/N=signal-to-noise ratio.
# [2] = biological target: T1, dg-IgA conjugated to Alexa Fluor 594 (Homo sapiens, UniProt P01876+P07306); experiment: ASGPR-dependent uptake assay (dg-IgA endocytosis) in HEK293 (+ASGPR) cells; assay type: cell-based
# T1 construct: prepared from pooled human serum IgA in three enzymatic steps; from tissue; host or cells: pooled human serum IgA, deglycosylated and dye-labelled; added to HEK293 cells transfected with human ASGPR1
# Procedure: as §1, §2, §3, §4
# Column 1-6:1.1 ug/mL dg-IgA-594-5 ml (5.5 μL dg-IgA).
# as §5, §6, §7, §8, §9
# [3] = biological target: T2, exogenous dg-IgA (UniProt P01876+P34927); experiment: Degradation (clearance) of exogenous dg-IgA in mice; assay type: in vivo; details: wild-type mice
# T2 construct: prepared from pooled human serum IgA in three enzymatic steps; from tissue; host or cells: pooled human serum IgA, deglycosylated; injected i.v. into wild-type mice
# Procedure: FIGS. 21 and 22 are line graphs showing the results of the administration of agent to mice. […] The dosage was AGN03A intravenous, 200 μg/mouse=8 mpk dg-IgA intravenous, 100 μg=4 mpk (five times higher than the patient's median galactose-deficient IgA1 level).
# AGN03A achieves robust degradation of exogenous dg-IgA in mice. […] Results were consistent with the AGN03A mechanism of action. AGN03A depleted exogenous dg-IgA in wild-type mice to 58% of the area under the curve of control at a 2:1 (drug: target) ratio after sequential intravenous (IV) administration. […] AGN03A rapidly and robustly degrades an enzymatically deglycosylated form of human IgA administered to mice.
# [4] = Assay #1, 1 μg/ml dg-IgA (A594)
# [5] = Assay #2, 1 μg/ml dg-IgA (A594)
# [6] = Assay #3, 1 μg/ml dg-IgA (A594)
# T1 sequence (P01876 1-353 isoform P01876-1): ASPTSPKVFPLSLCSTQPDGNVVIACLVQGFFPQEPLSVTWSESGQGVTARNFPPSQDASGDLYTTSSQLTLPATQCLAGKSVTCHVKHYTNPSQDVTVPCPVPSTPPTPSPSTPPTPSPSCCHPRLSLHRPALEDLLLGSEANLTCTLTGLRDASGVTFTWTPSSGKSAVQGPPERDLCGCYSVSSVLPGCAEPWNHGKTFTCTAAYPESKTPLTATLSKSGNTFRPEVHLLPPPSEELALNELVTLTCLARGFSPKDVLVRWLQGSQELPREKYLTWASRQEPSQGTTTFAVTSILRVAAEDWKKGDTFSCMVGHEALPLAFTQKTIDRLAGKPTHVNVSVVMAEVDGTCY
# T1 sequence (P07306 whole entry): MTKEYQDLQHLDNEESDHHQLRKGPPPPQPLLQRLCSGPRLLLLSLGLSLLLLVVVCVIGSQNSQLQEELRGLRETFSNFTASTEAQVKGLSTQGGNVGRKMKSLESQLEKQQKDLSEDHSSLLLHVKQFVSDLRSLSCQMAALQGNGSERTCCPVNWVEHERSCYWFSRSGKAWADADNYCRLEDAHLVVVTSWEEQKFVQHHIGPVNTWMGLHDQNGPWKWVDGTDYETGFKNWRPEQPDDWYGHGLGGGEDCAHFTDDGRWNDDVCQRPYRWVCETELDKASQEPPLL
# T2 sequence (P01876 1-353 isoform P01876-1): as the sequence (P01876 1-353 isoform P01876-1) above
# T2 sequence (P34927 whole entry): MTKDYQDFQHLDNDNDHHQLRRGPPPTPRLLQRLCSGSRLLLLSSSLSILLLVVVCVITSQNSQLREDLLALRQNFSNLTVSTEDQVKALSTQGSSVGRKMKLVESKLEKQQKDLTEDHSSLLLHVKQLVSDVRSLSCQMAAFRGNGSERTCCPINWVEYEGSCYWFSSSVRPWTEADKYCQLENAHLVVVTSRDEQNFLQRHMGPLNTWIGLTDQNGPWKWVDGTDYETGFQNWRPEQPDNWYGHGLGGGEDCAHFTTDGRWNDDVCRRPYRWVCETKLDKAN
# T2 sequence (P24721 whole entry partner): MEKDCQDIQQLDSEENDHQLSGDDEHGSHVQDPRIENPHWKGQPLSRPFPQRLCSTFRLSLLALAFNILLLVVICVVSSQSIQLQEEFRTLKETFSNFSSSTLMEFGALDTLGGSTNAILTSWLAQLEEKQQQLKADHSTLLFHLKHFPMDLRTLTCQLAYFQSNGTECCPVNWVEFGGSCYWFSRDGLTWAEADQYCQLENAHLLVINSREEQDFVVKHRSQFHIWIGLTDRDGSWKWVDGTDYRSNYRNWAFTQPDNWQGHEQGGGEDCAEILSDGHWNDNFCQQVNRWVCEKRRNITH
molecule,measurement,setting,value
ABT030 (antibody) heavy: ELQLQESGPGLVKPSQSLSLTCSVTGYSIRSNYWGWIRKFPGNKMEWMGYITYSGGTYYNPSLKSRISITRDTSKNQFFLQLTSVTTEDTATYYCTRWGDWYFDFWGPGTKVTVSPASTKGPSVFPLAPSSKSTSGGTAALGCLVKDYFPEPVTVSWNSGALTSGVHTFPAVLQSSGLYSLSSVVTVPSSSLGTQTYICNVNHKPSNTKVDKKV[letters of human IgG1 Fc with changes not shown] light: DVVLTQTPPPLSVAIGQSVSISCKSSQSLVHTDGKTYLHWLLQSPGQSPKLLIYQVSNLGSGVPDRFSGTGSQKDFTLKISRVEAEDLGVYYCVQATHFPLTFGIGTKLELQRTVAAPSVFIFPPSDEQLKSGTASVVCLLNNFYPREAKVQWKVDNALQSGNSQESVTEQDSKDSTYSLSSTLTLSKADYEKHKVYACEVTHQGLSSPVTKSFNRGEC,High MFI,"[1]; Assay #1, 1 μg/ml IgA (A594)",240.3
same,High MFI,"[1]; Assay #2, 1 μg/ml IgA (A594)",198.3
same,High MFI,"[1]; Assay #3, 1 μg/ml IgA (A594)",196.2
same,High MFI,[2]; [4],429.9
same,Z prime,[2]; [4],−1.43
same,High MFI,[2]; [5],444.1
same,Z prime,[2]; [5],−1.57
same,High MFI,[2]; [6],453.6
same,Z prime,[2]; [6],−1.86
same,effect on degradation of exogenous dg-IgA,[3],did not affect the degradation of exogenous dg-IgA
